Experimental data from the supplement of paper PMC4604168 (melanoma cell lines).
This is one part of the list. Repeats are few or missing, and single values can be far off.

Columns and labels:
Assay in all cases: cell count relative to DMSO control; melanoma cells; higher = more viable cells
Conditions in all cases: library dose: low library concentration; 72 h; first compound 0.4 µM
MZ2-MEL = system: MZ2-MEL
MeWo = system: MeWo
RPMI7951 = system: RPMI7951
RVH-421 = system: RVH-421
SkMel28 = system: SkMel28
SkMel2 = system: SkMel2
SkMel30 = system: SkMel30
SkMel5 = system: SkMel5
UACC257 = system: UACC257
UACC62 = system: UACC62
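Note: cell number obtained by counting DAPI-stained nuclei in high-throughput microscope images with image analysis software, screen run in 1,536-well plates.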

Structure (SMILES)	cell count (MZ2-MEL) [%]	cell count (MeWo) [%]	cell count (RPMI7951) [%]	cell count (RVH-421) [%]	cell count (SkMel28) [%]	cell count (SkMel2) [%]	cell count (SkMel30) [%]	cell count (SkMel5) [%]	cell count (UACC257) [%]	cell count (UACC62) [%]
Cn1sc(=O)n(Cc2ccccc2)c1=O + NC(=O)Nc1cc(-c2cccc(F)c2)sc1C(=O)N[C@H]1CCCNC1 [AZD7762] (partner dose 0.02 µM)	114	98.7	112	109	122	114	86.5	103	108	96.5
CCCCCCCCCCCCCCCCCCOP(=O)([O-])OC1CC[N+](C)(C)CC1 [Perifosine] + CC1(C)NC(=O)N(c2ccc([N+](=O)[O-])c(C(F)(F)F)c2)C1=O [nilutamide] (partner dose 1 µM)	102	87.2	42.8	97.6	70.5	84.5	80.6	80.1	104	66.6
C[C@@H](N)c1ccc(C(=O)Nc2ccnc3[nH]ccc23)cc1 + O=C(O)c1ccc(-c2c[nH]c3ncc(-c4ccccc4)cc23)cc1C1CCCC1 [GSK650394] (partner dose 0.16 µM)	90.1	54.3	89.2	103	86.7	103	107	81.6	87.3	88.4
CCCCCCCCCCCCCCCCCCOP(=O)([O-])OC1CC[N+](C)(C)CC1 [Perifosine] + O=C(O)C(=O)Nc1sc2c(c1C(=O)O)CCNC2 [TCS401] (partner dose 1.66667 µM)	101	102	75.6	86.8	90.3	101	91	87.3	107	94.9
CCCCCCCCCCCCCCCCCCOP(=O)([O-])OC1CC[N+](C)(C)CC1 [Perifosine] + NCC(=O)Nc1ccc(-n2nc(C(F)(F)F)cc2-c2ccc3c(ccc4ccccc43)c2)cc1 [OSU03012] (partner dose 1 µM)	90.8	55.6	97	89.7	77.5	77.4	54.2	84.3	121	104
Cn1sc(=O)n(Cc2ccccc2)c1=O + COc1cc(N2CCC(N3CCN(C)CC3)CC2)ccc1Nc1ncc(Cl)c(Nc2ccccc2S(=O)(=O)C(C)C)n1 [NVP-TAE684] (partner dose 0.08 µM)	113	98.2	90.4	102	97.2	101	94.8	92.1	92.3	93.5
C[C@@H](N)c1ccc(C(=O)Nc2ccnc3[nH]ccc23)cc1 + CC1(C)NC(=O)N(c2ccc([N+](=O)[O-])c(C(F)(F)F)c2)C1=O [nilutamide] (partner dose 1 µM)	95.4	77.6	84.1	70.8	70.4	110	120	81.2	86.8	93.9
CCCCCCCCCCCCCCCCCCOP(=O)([O-])OC1CC[N+](C)(C)CC1 [Perifosine] + COc1ccc(COc2ccc(Cc3cnc(N)nc3N)cc2OC)cc1 [GW2580] (partner dose 1 µM)	107	95.6	104	108	113	102	116	110	88.5	122
Cn1sc(=O)n(Cc2ccccc2)c1=O + COc1cc2c(Oc3ccc4[nH]c(C)cc4c3F)ncnc2cc1OCCCN1CCCC1 [cediranib] (partner dose 0.4 µM)	106	104	113	97.7	90.5	95.4	74.6	114	73.5	101
CCCCCCCCCCCCCCCCCCOP(=O)([O-])OC1CC[N+](C)(C)CC1 [Perifosine] + COc1ccc(-c2ccc3c(N4CCOCC4)nc(N4C[C@@H](C)O[C@@H](C)C4)nc3n2)cc1CO [KU0063794] (partner dose 0.02 µM)	103	97.9	60.1	98.1	89.7	93.3	96.1	88.4	85.8	90.9
C[C@@H](N)c1ccc(C(=O)Nc2ccnc3[nH]ccc23)cc1 + Cn1cc(/C=C2\C(=O)Nc3cccnc32)c2ccccc21 [GW441756] (partner dose 0.4 µM)	74.2	72.9	78.4	73.7	68.2	103	111	32.3	53.8	71
CCCCCCCCCCCCCCCCCCOP(=O)([O-])OC1CC[N+](C)(C)CC1 [Perifosine] + CCc1ccc(CCOc2ccc(CC3SC(=O)NC3=O)cc2)nc1 [pioglitazone] (partner dose 2 µM)	102	92.1	59.9	106	63.6	86.5	63	112	96.8	79.2
Cn1sc(=O)n(Cc2ccccc2)c1=O + CN(C)S(=O)(=O)c1ccc2c(c1)/C(=C/c1cc3c([nH]1)CCCC3)C(=O)N2 [SU6656] (partner dose 0.4 µM)	97.9	92.9	85.7	100	85	103	88	97.6	91.3	85
